The record followed here is article PMC11007909.

The chains behind the UniProt entries cited, without tags or fusion partners. Residues count along the entry.
UniProt O94973: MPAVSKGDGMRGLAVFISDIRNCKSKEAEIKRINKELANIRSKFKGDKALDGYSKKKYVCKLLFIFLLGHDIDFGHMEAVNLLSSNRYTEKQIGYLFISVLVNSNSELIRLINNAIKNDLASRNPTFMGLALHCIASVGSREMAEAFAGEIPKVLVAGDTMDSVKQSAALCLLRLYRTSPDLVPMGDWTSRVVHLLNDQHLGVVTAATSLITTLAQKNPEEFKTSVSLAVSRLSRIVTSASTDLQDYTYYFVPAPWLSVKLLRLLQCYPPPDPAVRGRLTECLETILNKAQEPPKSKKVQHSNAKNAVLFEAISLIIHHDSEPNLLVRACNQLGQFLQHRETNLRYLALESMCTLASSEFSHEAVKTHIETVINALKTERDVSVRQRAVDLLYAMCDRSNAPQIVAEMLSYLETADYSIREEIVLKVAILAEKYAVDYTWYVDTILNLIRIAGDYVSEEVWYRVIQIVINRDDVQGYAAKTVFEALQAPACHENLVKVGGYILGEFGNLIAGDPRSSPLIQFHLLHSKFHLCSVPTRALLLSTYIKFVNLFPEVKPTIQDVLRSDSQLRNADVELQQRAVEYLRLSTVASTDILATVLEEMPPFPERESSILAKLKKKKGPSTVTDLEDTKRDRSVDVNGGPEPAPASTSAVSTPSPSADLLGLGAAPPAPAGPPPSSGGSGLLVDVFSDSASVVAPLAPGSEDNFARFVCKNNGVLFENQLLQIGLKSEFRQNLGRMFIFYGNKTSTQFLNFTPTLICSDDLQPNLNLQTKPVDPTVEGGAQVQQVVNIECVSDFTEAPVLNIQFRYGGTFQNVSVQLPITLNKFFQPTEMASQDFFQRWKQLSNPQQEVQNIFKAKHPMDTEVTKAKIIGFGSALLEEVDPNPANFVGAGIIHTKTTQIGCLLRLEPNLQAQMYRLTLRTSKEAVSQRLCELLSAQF
UniProt P63010: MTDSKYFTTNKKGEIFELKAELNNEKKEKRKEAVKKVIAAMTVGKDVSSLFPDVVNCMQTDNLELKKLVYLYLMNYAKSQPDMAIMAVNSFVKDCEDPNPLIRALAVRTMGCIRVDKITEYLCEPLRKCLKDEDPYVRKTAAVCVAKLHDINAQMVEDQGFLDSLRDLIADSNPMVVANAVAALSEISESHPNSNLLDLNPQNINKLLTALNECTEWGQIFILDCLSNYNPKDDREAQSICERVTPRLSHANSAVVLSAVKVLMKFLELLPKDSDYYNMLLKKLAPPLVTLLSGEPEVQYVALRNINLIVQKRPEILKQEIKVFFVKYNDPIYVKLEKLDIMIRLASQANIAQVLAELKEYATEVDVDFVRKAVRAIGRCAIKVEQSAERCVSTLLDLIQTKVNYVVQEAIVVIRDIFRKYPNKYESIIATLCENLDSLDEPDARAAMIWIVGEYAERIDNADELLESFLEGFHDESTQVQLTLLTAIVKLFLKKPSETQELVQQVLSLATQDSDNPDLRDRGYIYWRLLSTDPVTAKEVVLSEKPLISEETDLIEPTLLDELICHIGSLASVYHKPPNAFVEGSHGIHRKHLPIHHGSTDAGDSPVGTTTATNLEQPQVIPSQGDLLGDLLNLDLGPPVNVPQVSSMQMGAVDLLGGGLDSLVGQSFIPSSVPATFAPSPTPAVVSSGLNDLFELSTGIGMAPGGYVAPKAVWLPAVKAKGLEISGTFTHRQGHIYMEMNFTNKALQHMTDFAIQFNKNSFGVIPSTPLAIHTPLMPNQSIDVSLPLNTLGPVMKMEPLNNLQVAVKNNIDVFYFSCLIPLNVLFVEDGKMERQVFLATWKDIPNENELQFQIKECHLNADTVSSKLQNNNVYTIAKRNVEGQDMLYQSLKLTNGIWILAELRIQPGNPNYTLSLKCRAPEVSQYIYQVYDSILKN
UniProt P35968, residues 20-1356: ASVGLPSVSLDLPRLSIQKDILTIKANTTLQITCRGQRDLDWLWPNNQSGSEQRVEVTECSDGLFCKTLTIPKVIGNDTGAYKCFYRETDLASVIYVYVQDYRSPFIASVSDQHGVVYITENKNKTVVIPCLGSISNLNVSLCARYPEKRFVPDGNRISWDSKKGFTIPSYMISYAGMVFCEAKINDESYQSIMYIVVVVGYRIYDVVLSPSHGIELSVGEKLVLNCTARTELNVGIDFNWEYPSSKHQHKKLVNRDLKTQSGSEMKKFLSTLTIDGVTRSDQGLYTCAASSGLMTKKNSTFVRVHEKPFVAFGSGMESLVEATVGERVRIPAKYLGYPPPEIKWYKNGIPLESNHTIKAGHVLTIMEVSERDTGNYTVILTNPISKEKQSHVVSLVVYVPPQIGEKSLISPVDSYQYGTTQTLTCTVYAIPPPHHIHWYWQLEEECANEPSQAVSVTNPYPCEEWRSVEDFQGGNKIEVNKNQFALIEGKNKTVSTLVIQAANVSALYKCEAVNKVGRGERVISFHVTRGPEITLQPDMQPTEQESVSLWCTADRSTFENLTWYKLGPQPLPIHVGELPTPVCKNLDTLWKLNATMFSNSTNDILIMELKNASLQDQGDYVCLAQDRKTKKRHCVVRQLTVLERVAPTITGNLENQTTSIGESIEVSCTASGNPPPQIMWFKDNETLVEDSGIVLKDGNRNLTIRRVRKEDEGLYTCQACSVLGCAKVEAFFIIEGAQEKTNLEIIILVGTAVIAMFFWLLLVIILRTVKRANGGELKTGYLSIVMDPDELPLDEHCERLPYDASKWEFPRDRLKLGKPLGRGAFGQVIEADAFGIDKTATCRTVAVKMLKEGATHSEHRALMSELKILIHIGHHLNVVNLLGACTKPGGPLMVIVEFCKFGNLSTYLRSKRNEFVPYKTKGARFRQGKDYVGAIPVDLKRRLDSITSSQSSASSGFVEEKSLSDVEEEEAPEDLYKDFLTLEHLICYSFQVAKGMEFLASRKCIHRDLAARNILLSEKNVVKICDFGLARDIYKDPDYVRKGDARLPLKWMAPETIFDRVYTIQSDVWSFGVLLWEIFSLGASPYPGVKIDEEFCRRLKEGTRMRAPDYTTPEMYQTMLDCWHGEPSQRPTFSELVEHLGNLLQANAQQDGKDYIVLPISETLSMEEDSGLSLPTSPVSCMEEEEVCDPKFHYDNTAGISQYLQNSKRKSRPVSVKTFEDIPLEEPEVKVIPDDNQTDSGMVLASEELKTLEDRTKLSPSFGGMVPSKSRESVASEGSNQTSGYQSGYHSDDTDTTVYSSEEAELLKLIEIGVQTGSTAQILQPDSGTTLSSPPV
UniProt P11362, residues 22-822: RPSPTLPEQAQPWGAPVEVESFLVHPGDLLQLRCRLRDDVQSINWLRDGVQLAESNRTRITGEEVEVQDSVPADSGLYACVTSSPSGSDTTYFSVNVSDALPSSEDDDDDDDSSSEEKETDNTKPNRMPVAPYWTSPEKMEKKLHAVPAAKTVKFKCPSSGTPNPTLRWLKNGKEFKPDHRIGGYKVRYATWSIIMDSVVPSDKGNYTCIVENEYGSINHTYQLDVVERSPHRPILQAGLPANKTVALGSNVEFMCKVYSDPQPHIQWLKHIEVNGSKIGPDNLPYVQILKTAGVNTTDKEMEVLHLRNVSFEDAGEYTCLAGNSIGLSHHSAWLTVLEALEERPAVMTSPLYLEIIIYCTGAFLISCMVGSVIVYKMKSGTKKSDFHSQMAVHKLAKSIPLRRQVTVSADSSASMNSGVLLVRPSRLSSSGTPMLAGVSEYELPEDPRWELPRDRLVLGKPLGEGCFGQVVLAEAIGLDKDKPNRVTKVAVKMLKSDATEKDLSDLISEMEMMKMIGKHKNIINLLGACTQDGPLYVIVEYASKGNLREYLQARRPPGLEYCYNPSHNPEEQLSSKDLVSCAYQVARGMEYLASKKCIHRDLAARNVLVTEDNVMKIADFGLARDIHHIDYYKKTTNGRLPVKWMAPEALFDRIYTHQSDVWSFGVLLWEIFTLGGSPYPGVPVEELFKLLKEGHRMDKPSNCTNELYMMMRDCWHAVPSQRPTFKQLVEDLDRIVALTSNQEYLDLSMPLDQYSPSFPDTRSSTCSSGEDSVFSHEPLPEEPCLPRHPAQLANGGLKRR
UniProt P17948, residues 27-1338: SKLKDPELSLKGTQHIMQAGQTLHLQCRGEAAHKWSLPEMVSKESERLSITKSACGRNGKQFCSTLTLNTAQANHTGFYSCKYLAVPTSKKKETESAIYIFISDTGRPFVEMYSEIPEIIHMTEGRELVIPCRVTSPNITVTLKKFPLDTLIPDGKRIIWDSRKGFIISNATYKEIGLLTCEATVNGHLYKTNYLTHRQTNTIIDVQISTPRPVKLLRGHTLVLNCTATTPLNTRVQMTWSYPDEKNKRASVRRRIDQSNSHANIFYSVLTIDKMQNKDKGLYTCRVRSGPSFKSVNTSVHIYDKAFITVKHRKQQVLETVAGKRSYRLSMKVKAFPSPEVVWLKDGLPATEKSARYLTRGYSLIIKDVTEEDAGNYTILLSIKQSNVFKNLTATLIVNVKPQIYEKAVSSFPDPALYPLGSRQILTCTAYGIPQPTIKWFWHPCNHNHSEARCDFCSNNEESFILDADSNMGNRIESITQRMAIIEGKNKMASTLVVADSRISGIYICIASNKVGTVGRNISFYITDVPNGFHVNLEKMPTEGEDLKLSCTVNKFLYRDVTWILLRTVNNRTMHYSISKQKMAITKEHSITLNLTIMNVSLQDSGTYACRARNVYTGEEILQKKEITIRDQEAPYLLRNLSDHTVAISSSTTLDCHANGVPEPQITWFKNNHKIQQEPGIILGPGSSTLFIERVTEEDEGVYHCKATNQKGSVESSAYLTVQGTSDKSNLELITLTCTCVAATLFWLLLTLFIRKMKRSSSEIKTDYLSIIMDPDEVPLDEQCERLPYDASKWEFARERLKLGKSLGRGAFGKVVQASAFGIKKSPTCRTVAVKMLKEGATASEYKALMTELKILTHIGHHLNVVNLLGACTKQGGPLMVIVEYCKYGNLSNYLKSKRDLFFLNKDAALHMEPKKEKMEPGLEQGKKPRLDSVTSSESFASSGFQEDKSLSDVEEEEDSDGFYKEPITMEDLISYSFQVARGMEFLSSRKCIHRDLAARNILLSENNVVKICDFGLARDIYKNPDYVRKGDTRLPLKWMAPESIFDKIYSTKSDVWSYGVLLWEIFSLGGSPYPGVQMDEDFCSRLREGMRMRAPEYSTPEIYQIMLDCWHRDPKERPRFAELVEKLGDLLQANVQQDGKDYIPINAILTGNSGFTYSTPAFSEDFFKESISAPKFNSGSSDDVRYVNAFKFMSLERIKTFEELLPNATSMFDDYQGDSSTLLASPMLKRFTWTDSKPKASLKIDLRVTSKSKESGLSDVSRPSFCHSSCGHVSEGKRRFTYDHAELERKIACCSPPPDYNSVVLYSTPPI

These are yes or no findings as the source states them, for the method shown. Binding seen in cells or lysates may run through a third protein. Some entries that bind do so weakly or less than the wild type. For some of these results: Sequences can lack the tags named with a protein.

Test [1] has as its target T1, Endomucin (human (endogenous in HRECs)) (UniProt Q9ULC0).
T1 sequence: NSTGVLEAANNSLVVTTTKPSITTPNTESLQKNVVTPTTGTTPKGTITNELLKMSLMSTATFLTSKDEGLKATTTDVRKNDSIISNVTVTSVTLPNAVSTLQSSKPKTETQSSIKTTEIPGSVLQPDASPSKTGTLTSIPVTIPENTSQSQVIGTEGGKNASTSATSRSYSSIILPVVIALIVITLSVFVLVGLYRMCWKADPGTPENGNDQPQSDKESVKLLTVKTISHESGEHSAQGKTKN
In words: co-IP; immunoprecipitation and Western blot validating EMCN with AP2A2 (Fig. 1E); which protein was precipitated is not told.

Test [2] deals with T2, myc-tagged human EMCN (human) (UniProt Q9ULC0).
T2 sequence: T1 sequence
In words: co-IP; HRECs overexpressing myc-tagged EMCN (AdEMCN-myc) lysed; mouse anti-Myc antibody or mouse IgG overnight at 4 °C, protein A/G beads, PBST and PBS washes; Western blot.

Test [3] concerns the target AP2A2 subunit of the AP2 adaptor complex (human (endogenous in HRECs)) (UniProt O94973). The experiment in a line: co-IP; HRECs treated with non-targeting siRNA (siNT) lysed; VEGFR2 co-immunoprecipitated with AP2A2; Western blot (Fig. 3G). For orientation: Immunoblotting shows a protein as a band on a membrane.

Take “AP2A2 subunit of the AP2 adaptor complex (from UniProt O94973 1-939)”: the binding entry in test [1] and in test [2] was “binds” throughout.

In the case of “AP2β, β subunit of the AP2 adaptor complex (from UniProt P63010 1-937)”, in test [2], the binding entry was “binds”.

Regarding “Vascular endothelial growth factor receptor 2 (from UniProt P35968 20-1356)”, the binding result in test [2] is listed as “binds”.

In the case of “Fibroblast growth factor receptor 1 (from UniProt P11362 22-822)”, the binding result in test [2] is given as “no binding”.

Take “Vascular endothelial growth factor receptor 1 (from UniProt P17948 27-1338)”: the binding result in test [2] is given as “no binding”.

B1: Endomucin (protein, UniProt Q9ULC0 19-261)
chain: T1 sequence
Consider B1, for which, in test [3], the binding result is given as “binds”.
